Source: the supplement of paper PMC3724861
The other results are listed elsewhere or left out.

tested on: T1, Caupolican (Caup) homeodomain DNA-binding domain; experiment: PBM E-score (8-mer, recovered from the published 9-mer minima) (E-score (dimensionless, -0.5 to 0.5)); Drosophila protein; higher = stronger relative binding preference, active = 0.31 or more
T1 sequence: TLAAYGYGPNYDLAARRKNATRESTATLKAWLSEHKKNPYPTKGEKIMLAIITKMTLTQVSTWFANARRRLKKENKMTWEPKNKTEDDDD
Procedure: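 Protein binding microarray (PBM): in vitro transcribed/translated Caupolican (Caup) homeodomain DNA-binding domain (residues 214-303) applied at 100 nM to a universal 8-mer PBM array (Agilent AMADID 015681). The 8-mer enrichment score (E-score, range -0.5 to 0.5) was computed, and each 9-mer score is the minimum E-score of its two constituent 8-mers. The E-score is the same for a 9-mer and its reverse complement; 0.31 is the stated binding threshold.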

PBM E-score, ≥ 0.158:
TAACTAGA

PBM E-score, active:
TATGTAAA 0.327
ACATGAAC 0.372

PBM E-score, inactive:
CCTTTATA 0.0249
ACATAACG 0.301
ATTGAAAT 0.0885
AGATGGTG -0.0838
TTTACAAA 0.245
ATTGCAGG -0.00827
AACAAGCA 0.308
CGGTTGGA -0.155
CCGCTTCG -0.192
AGTATCAA 0.148
ATCATCAG 0.0473
CCGGCGCG -0.245
ACGGACGC -0.0557
GTTGGCCA -0.131
GAACGAGA 0.0986
CAACGCGA 0.0302
ATTCGGTC -0.0344
GAGACAGA 0.0588
GGTGGGCA -0.0603
CCACTACG -0.114
AAACGTCA 0.0239
CTGTTATC 0.103
ACGCTGGA -0.139
CAGGGAGG -0.281
CCACGACA 0.1
TAGTTGCA 0.111
GATATTTA 0.099
CGTCAACC 0.0167
ACCGTAGC -0.0502
GTAATTAC 0.274
GTGTCCAA 0.253
GCGGGTGA -0.223
GTTTTAAA 0.0852
CAGAAGCG -0.1
CGTGCGGC -0.189
ACCTCATG 0.0552
GCCGCAGC -0.204
CTTTGAGC -0.207
CTCTTAAG -0.0965
AGTCGCCA -0.173
ATCCCCGG -0.117
CGAAGACC -0.0172
CATCGTCG -0.0502
ACTGCACA 0.0535
ATAGGTCG -0.0592
ACACAAGG 0.158
GGGAAGAA -0.072
CATTATTC 0.127
ATCCTGCG -0.122
CGAATCGC -0.0913
CTCACCGC -0.134
GCACCCGC -0.149
AGTTAATA 0.178
AGACAGCT -0.0192
AGACCTCT -0.19
ACGCCTTC -0.0929
ATAGGTAA 0.0794
CACGAATG 0.14
CTTGAGAC -0.14
CATGACCG 0.0138
CGCAAAAC 0.00757
ACTGCACT -0.0303
ATGAATGC 0.0723
TCGCTACA 0.21
ATGACAAT 0.274
CTCATAAC -0.00553
CAGGCTGA -0.114
GAATGCTC -0.112
CGCCTCTC -0.271
TAAAGACA 0.174
CCACCAAC -0.0531
TGCTCCAA 0.02
ATCACAGG 0.0483
CAAGCGCA 0.0953
CTTCTGAC 0.0331
ACGAGCTG 0.0659
CCATAGGC -0.179
ACTCAGCC -0.171
CCGTGCTA 0.00141
ATACGTAG 0.152
GTTCTGCA 0.0113
AAATTTAA 0.0777
GAGCATAA -0.00375
AATTTCTG 0.00278
ATGCTACG 0.124
AAACGTAC 0.162
CCCAGTCG -0.219
TCTCGTAA 0.145
GTATTCAC 0.121
ACATACGC 0.139
ATGATACA 0.295
AAATACTT 0.1
GGCGTAAC -0.0448
CGAGGTAA -0.0814
CTTAGGTA 0.0422
AACGACTA 0.153
AGAGACCA -0.0887
AACCCGCT -0.132
ATAAACAG 0.147
CGGTTATC -0.0149
GGTAGATA 0.0131
AATAATGG -0.0161
CAATCACG 0.101

PBM E-score, ≥ 0.117:
GGAGAATA

PBM E-score, ≥ -0.0479:
ACCGGCGT

PBM E-score, ≥ -0.0245:
ATGCCCAT

PBM E-score, ≥ 0.129:
ACTGAATA

PBM E-score, ≥ -0.048:
TCCTTCCA

PBM E-score, ≥ 0.0141:
AGGGTGAT

PBM E-score, ≥ -0.0591:
ACCGCGCA
